Results reported in publication PMC12136788.
The other results are listed elsewhere or left out.

T1: UNK ZnF1-3 (human, UniProt Q9C0B0 31-174)
T1 sequence: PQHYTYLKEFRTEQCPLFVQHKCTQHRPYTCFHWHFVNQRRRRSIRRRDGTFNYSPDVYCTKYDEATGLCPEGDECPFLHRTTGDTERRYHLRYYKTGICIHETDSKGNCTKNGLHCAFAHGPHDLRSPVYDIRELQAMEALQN

B1: chrX:71549400:71549401:+_ENSMUSG00000019087_ENSMUST00000019231|mus_hu|mus_mus_mus_hu_False|58_108 (ssRNA)
RNA: GGGAGUUCUACAGUCCGACGAUCGCAAGGAAGAGGAGGAAGCUCUUCAGUCCAGUGCGCUGCAGGGUGGGAAAGCACAACCUAGACCACCGUCCCACCCUCAACCCCCCCACUGGCACAGGGUCACACAAUCUGGGUCAAAGACAACAGAGGAUUGAGCAUCA
B2: chr7:149068622:149068623:-_ENSMUSG00000025139_ENSMUST00000001950|mus_hu|mus_mus_mus_hu_False|48_48 (ssRNA)
RNA: GGGAGUUCUACAGUCCGACGAUCGUGAGGCCUCUGAGUGUGGCUUGUGGUCUGUCCUGGGUUAGAGUUGUUAAUAUCACGGAACAUACCACUUAAGACGUUCCAGUCCCGCCUGACACCUUCAUUCCCAAUGGAGAAGAAAUCCAACAGAGGAUUGAGCAUCA
B3: chr12:16048344:16048345:+_ENSG00000023734_ENST00000419869|hu_hu|hu_hu_hu_mus_True|18_38 (ssRNA)
RNA: GGGAGUUCUACAGUCCGACGAUCAGAUCGUCCAUAAGUAAUAACCAAAAUCUCUCCUUCAGGAAUAUACUCCAUGCUGCUAACAGACAUAUUAAAAUUUAGAGAUUUCACUUCUGUCAUAGUAGCAUGAUCCCAGAGCCGAACCAACAGAGGAUUGAGCAUCA
B4: chr4:107013644:107013645:+_ENSMUSG00000057375_ENSMUST00000075693|mus_mus|motif|central (ssRNA)
RNA: GGGAGUUCUACAGUCCGACGAUCCACAUAAUGGUAUGUCUUCUCUCCCAGAUGGAUUAGGAAGUUAGAAAGGUUCCCACGGAUUGCGGUGGCAAAGACCAACGUGGCACAUAUCCAAAAGGGACCAUAGAGAUCUGGAUUGCUCAACAGAGGAUUGAGCAUCA
B5: chr11:18503389:18503390:-_ENSG00000074319_ENST00000251968|hu_hu|hu_hu_hu_mus_True|18_108 (ssRNA)
RNA: GGGAGUUCUACAGUCCGACGAUCAUUUUCCAUUUUUUCCAGAGCAGAACUUAGUUCUUCAUCCUUCUUUUUCAAAAGUUCUAUGUUUUUAUCAACUUCAGCUACUUCUUGAUCUAAACGGGUAACCAUCUCUUCCAGUUUCUGCAACAGAGGAUUGAGCAUCA
B6: chr12:48362563:48362564:+_ENSG00000134291_ENST00000256686|hu_hu|hu_hu_hu_mus_False|78_78 (ssRNA)
RNA: GGGAGUUCUACAGUCCGACGAUCUCCGUCAAGCCCUUCGAUAGACCCUUGCGGGGGUGGUAAAAACCACUUUGUAUGGGGAAGGAAAAGAAACGCCAAAAACUUUCCAAAAAGCGGGGGUGGGGUGAGGCGGGAGGGGGAGGUCAACAGAGGAUUGAGCAUCA
B7: chr12:39687547:39687548:-_ENSG00000139116_ENST00000551264|hu_mus|motif|central (ssRNA)
RNA: GGGAGUUCUACAGUCCGACGAUCUUAGGAAAUCAACAGCUCACCGUCCCAGAAUCCGUGCCCAGCACUAACAACACAACGUCGGCGCAGCAUUUCAAUCCUGAGCACAGAAUGAAGAACAACUGAAAGCUUUGGUCAAUACAGCAACAGAGGAUUGAGCAUCA
B8: chr2:232320318:232320319:-_ENSG00000115053_ENST00000322723|hu_hu|hu_hu_hu_mus_True|18_38 (ssRNA)
RNA: GGGAGUUCUACAGUCCGACGAUCACUAUUAAAGUCUACAAAACCAAACCCUUUGGAAGAACCAGUUUCCCGAUCAGUGACUAUUCUUGCACGAACAGAGCCGUCAAAUGAUUCUUUUAAUGUCUCUUCAGUGGUAUCCUCAGACAACAGAGGAUUGAGCAUCA
B9: chr15:80429895:80429896:+_ENSG00000086666_ENST00000558494|hu_hu|motif|central (ssRNA)
RNA: GGGAGUUCUACAGUCCGACGAUCUCAAGAAUUUUGUAUUCCAGCAGGAGUUCAAAUCUUUUGGAUCUUUUCACCAACAACGGCUGGAUUUUCUUUUCUGAUUUUCUCAGCAGCAUCGGCUUUGUAAUUGUAAGAGCAAUUGUGCAACAGAGGAUUGAGCAUCA
B10: 35989974_35990094_3696_CDS_ENSMUSG00000061607_ENSMUST00000082337|mouse|control|control (ssRNA)
RNA: GGGAGUUCUACAGUCCGACGAUCGAUAACAGGCUGUUCUAUAGAGGUGAGAGGCUGAAGUUCAGGGCCAGUGGAGACAACUGAUUCUGGGGUCCUGACAGAAGACUUACGUGGUCUGCCCCGAGUGACCCGAGAAGUGGGUUUCAACAGAGGAUUGAGCAUCA
B11: 107164976_107165096_396_CDS_ENSG00000125266_ENST00000245323|human|control|control (ssRNA)
RNA: GGGAGUUCUACAGUCCGACGAUCGGCACAGUUGAGGAGAGGGGUAUUUUCCUUCUUAAUAGUGCAUCUGUCUGCUUGGUCUUUAUCAACCAUAUAAACUUUAUAAUAUUCAUACUGGCCAACAGUUUUAGAGUCCACUUUGGGCAACAGAGGAUUGAGCAUCA
B12: chr3:179287964:179287965:+_ENSG00000136518_ENST00000429709|hu_hu|hu_hu_hu_mus_True|8_58 (ssRNA)
RNA: GGGAGUUCUACAGUCCGACGAUCCUUGAGUGGUGAGAUGGCCUCCAUGUUCUCCCUGGGCACGCGGAGGGCAUUGGUAUCUAUGUAGUAGGUGGGCCCGCCCUGCUUGCCUUUGUCACCAUCAAUCUCCAUUAAUGUACUUCCCAACAGAGGAUUGAGCAUCA
B13: chr8:59359966:59359967:+_ENSG00000215114_ENST00000399598|hu_hu|FALSE|FALSE (ssRNA)
RNA: GGGAGUUCUACAGUCCGACGAUCCGCAAAUUCAGGACGAGACUGUACAAUAAAGUUCCGGACAUCCAGGAUCCUGUGUGUACUAUUGAAUCUUUGUAUCAAACGACUCCCAUCUGCUAACCUGAUUUGAAUUUUUGUUGUUGGCAACAGAGGAUUGAGCAUCA
B14: chr11:46405157:46405158:+_ENSG00000110492_ENST00000395566|hu_hu|hu_hu_hu_mus_False|28_88 (ssRNA)
RNA: GGGAGUUCUACAGUCCGACGAUCCCCUCCCCACUUUGGGCACUUGGUGAGAGGGACAGAGGACAGGCGUGAUUGACAGAGCUGACAGGAAGACAAAAGGCACUGGUGGGUCACAUCUUGGGCCUGUGGGAGAGGAGGGCUCCGCAACAGAGGAUUGAGCAUCA
B15: 25140584_25140782_2291_CDS_ENSMUSG00000026965_ENSMUST00000028341|mouse|control|control (ssRNA)
RNA: GGGAGUUCUACAGUCCGACGAUCUGCCCAGAAGAGCAGUAGCUCCUCUUCCUUCUGGUCAGCCUGGGAGGCCAUGCCUGAGUCACUCUCAUCAUCACUGUCAAUCAGCACCAUGUUGUCCCUAUCCUGAGGCCGCUCUUCCUCCAACAGAGGAUUGAGCAUCA
B16: chr4:17845017:17845018:+_ENSG00000109805_ENST00000514176|hu_mus|hu_hu_hu_mus_False|78_88 (ssRNA)
RNA: GGGAGUUCUACAGUCCGACGAUCGCUCUCUUAACUUGUAUCUUCAUGAGAAAUUGGGCAAGGUUAAAGUUUACUUUUCUGUAGCGCAGCUGUUUUGGCUCGUCUGGGUAAUCUCAUCUUCAUUUCUGAUGGUGGUUCAUGAUCCAACAGAGGAUUGAGCAUCA
B17: chrX:132779699:132779700:+_ENSMUSG00000042712_ENSMUST00000048687|mus_mus|motif|central (ssRNA)
RNA: GGGAGUUCUACAGUCCGACGAUCAUUGAAGCAAGCUGUCUCUUCUGGCCGCUGGCCUCUCGCACCACCGUCUGCAAGGCGGAAGGGAGCUGGUACCCAGAUGGAAACAAGGACCAGACUAGCAGGAUUUCUGCACACGUCGACCAACAGAGGAUUGAGCAUCA
B18: chr11:20128097:20128098:-_ENSMUSG00000044066_ENSMUST00000050611|mus_mus|motif|central (ssRNA)
RNA: GGGAGUUCUACAGUCCGACGAUCUGCUUUUGACCAAUUCUAGGUUUUAUAGGAUAUUUUACAUUUAACUUAAAUUAUUUGCGGGAAAAGUUUUGUUUUAGCCUCUUGAAAGCACUUUAUGUACCAUGUACAGUAUAAGAAAUACAACAGAGGAUUGAGCAUCA
B19: chr5:66692119:66692120:-_ENSMUSG00000029207_ENSMUST00000159786|mus_hu|motif|central (ssRNA)
RNA: GGGAGUUCUACAGUCCGACGAUCAAUACCACUGCGUAAGGAAUUUGGACAUCUUUCUCCCACUCGUGUAGGGAAUUCGGAGAUUCCCUGACAAUAGAUCUUUCCAUACCUGCUCUUCUUAGUAUAUGCCCAGAAUCAUUCUGGCAACAGAGGAUUGAGCAUCA
B20: chr9:110451855:110451856:+_ENSMUSG00000044791_ENSMUST00000153838|mus_mus|motif|central (ssRNA)
RNA: GGGAGUUCUACAGUCCGACGAUCAACUGGCAAAGACAUGAGUUUAUCAUGGUGUGGUGACAACAAAGGUUCCAUUUCCCGGAAUGGACUUUUUGACGUAUUAUGCUGCCUACAAGUAUCAUCUGAGUCCCUUUCUCUGCAUCUCAACAGAGGAUUGAGCAUCA
B21: chr1:46159212:46159213:+_ENSG00000159596_ENST00000372025|hu_mus|hu_hu_hu_mus_True|18_68 (ssRNA)
RNA: GGGAGUUCUACAGUCCGACGAUCUCUGAUCCCUCCCAAGAAAGCUAGGAAACCGGCUCCAUAAGCCAUCUGAGUAAAAGCUAGGACGGGGAUAUAAGACUUUGUUAUUACCAUGAGCAGUGGUGGAGCAGUAAAGGGGAUUAACAACAGAGGAUUGAGCAUCA
B22: chr2:187371472:187371473:+_ENSG00000065548_ENST00000337859|hu_mus|FALSE|FALSE (ssRNA)
RNA: GGGAGUUCUACAGUCCGACGAUCACUGGCCACAGUGAUACCUGUCUCUUCUACAUCUCUUGGGACGUACAGGCUUAUAUCUAUGUCAUUUACACCCAUAGAAUCAUCAACCUCAUCACCACCUGUUCCCUGAAUGUAACGGGUCAACAGAGGAUUGAGCAUCA

Each binder was assayed against T1, UNK ZnF1-3 (assay: nsRBNS (natural sequence RNA bind-n-seq); RBNS binding buffer (assumed for nsRBNS): 25 mM Tris pH 7.5, 150 mM KCl, 3 mM MgCl2, 0.01% Triton X-100, 500 ug/ml BSA, 20 U/ml SUPERase-In, 4 C; UNK is unkempt and MSI1 is Musashi-1; names of the RNAs are library labels; protein concentration not given here; high values mean tight binding).

Binder	binding signal
B1	1.36 enrichment R
B2	0.661 enrichment R
B3	0.986 enrichment R
B4	0.946 enrichment R
B5	0.423 enrichment R
B6	2.07 enrichment R
B7	1.03 enrichment R
B8	0.821 enrichment R
B9	0.785 enrichment R
B10	0.965 enrichment R
B11	1.62 enrichment R
B12	0.687 enrichment R
B13	1.1 enrichment R
B14	2.55 enrichment R
B15	1.06 enrichment R
B16	0.554 enrichment R
B17	2.04 enrichment R
B18	1.01 enrichment R
B19	0.822 enrichment R
B20	1.25 enrichment R
B21	2.23 enrichment R
B22	0.625 enrichment R
